The list shows a part of the results. The full chains were built here from the parent and the listed change. Inactive controls read about 0.05.
B1: TEV protease; numbered along this chain (parent)
chain: MGESLFKGPRDYNPISSSICHLTNESDGHTTSLYGIGFGPFIITNKHLFRRNNGTLVVQSLHGVFKVKDTTTLQQHLVDGRDMIIIRMPKDFPPFPQKLKFREPQREERICLVTTNFQTKSMSSMVSDTSCTFPSGDGIFWKHWIQTKDGQCGSPLVSTRDGFIVGIHSASNFTNTNNYFTSVPKNFMELLTNQEAQQWVSGWRLNADSVLWGGHKVFMVKPEEPFQPVKEATQL

Variants of: B1
Assay: raw area under fraction-flipped curve 0-4 h after induction (AUC4h, not background-subtracted), DNA-recorder readout of cleavage of the substrate (dimensionless); higher = more cleavage of the substrate by the protease variant
Conditions: temperature: 34 °C; time window: 0-4 h after rhamnose induction
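Also: Bxb1 expression induced with 0.2% (w/v) L-rhamnose at OD600 near 0.5, cultures sampled hourly, flipped fraction per protease–substrate barcode pair counted by paired-end Illumina sequencing.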

Variant	area with substrate ENLDFQS	area with substrate ENLFFQS	area with substrate ENLHFQS	area with substrate ENLIFQS	area with substrate ENLKFQS	area with substrate ENLLFQS	area with substrate ENLRFQS	area with substrate ENLSFQS	area with substrate ENLWFQS	area with substrate ENLEFQS	area with substrate ENLGFQS	area with substrate ENLNFQS	area with substrate ENLVFQS	area with substrate ENLPFQS	area with substrate ENLMFQS	area with substrate ENLTFQS	area with substrate ENLQFQS
MGESLFKGPRDYNPISSSICHLTNESDGHTTSLYGIGFGPFIITNKHLFRRNNGTLVVQSLHGVFKVKDDTTLQQHLVDGRDMIIIRMPKDFPPFPQKLKFREPQREERICLVTTNFQTKSMSSMVSDTSCTFPSGDGIFWKHWIQTKDGQCGSPLVSTRDGFIVGIHSASNFTNTNNYFTSVPKNFMELLTNQEAQQWVSGWRLNADSVLWGGHKVFMVKPEEPFQPVKEATQL [T70D]	0.0677	0.0655	0.0567	0.0829	0.0618	0.0588	0.0587	0.0475	0.0565								
MGESLFKGPRDYNPISSSICHLTNESDGHTTSLYGIGFGPFIITNKHLFRRNNGTLVVQSLHGVFKVKDTTTLQQHLVDGRDMIIIRMPKDFPPFPQKLKFREPQREERICLVTTKFQTKSMSSMVSDTSCTFPSGDGIFWKHWIQTKDGQCGSPLVSTRDGFIVGIHSASNFTNTNNYFTSVPKNFMELLTNQEAQQWVSGWRLNADSVLWGGHKVFMVKPEEPFQPVKEATQL [N116K]	0.0477	0.0763	0.0765		0.0707	0.202		0.0525		0.0651	0.0686	0.0535	0.0931				
MGESLFKGPRDYNPISSSICHLTNESDGHTTSLYGIGFGPFIITNKHLFRRNNGTLVVQSLHGVFKVKDTTTLQQHLVDGRDMIIIRMPKDFPPFPQKLKFREPQREERICLVPTNFQTKSMSSMVSDTSCTFPSGDGIFWKHWIQTKDGQCGSPLVSTRDGFIVGIHSASNFTNTNNYFTSVPKNFMELLTNQEAQQWVSGWRLNADSVLWGGHKVFMVKPEEPFQPVKEATQL [T114P]	0.0609	0.0603	0.07	0.0624	0.0606	0.0541		0.064				0.0542		0.0684			
MGESLFKGPRDYNPISSSICHLTNESDGHTTSLYGIGFGPFIITNKHLFRRNNGTLVVQYLHGVFKVKDTTTLQQHLVDGRDMIIIRMPKDFPPFPQKLKFREPQREERICLVTTNFQTKSMSSMVSDTSCTFPSGDGIFWKHWIQTKDGQCGSPLVSTRDGFIVGIHSASNFTNTNNYFTSVPKNFMELLTNQEAQQWVSGWRLNADSVLWGGHKVFMVKPEEPFQPVKEATQL [S60Y]	0.0622	0.0697	0.0678		0.0649			0.0468		0.0657				0.0651	0.0985	0.074	
MGESLFKGPRDYNPISSSICHLTNESDGHTTSLYGIGFGPFIITNKHLFRRNNGTLVVQSLHGVFKVKDTTTLQQQLVDGRDMIIIRMPKDFPPFPQKLKFREPQREERICLVTTNFQTKSMSSMVSDTSCTFPSGDGIFWKHWIQTKDGQCGSPLVSTRDGFIVGIHSASNFTNTNNYFTSVPKNFMELLTNQEAQQWVSGWRLNADSVLWGGHKVFMVKPEEPFQPVKEATQL [H76Q]	0.0499				0.0758	0.0685	0.0829	0.0428	0.0645	0.0639		0.0692					0.0842
MGESLFKGPRDYNPISSSICHLTNESDGHTTSLYGIGFGPFIITNKHLFRRNNGTLVVQSLHGVFKVKDTTTLQQHLVDGRDMIIIRMPKDFPPFPQKLKFREPQREERINLVTTNFQTKSMSSMVSDTSCTFPSGDGIFWKHWIQTKDGQCGSPLVSTRDGFIVGIHSASNFTNTNNYFTSVPKNFMELLTNQEAQQWVSGWRLNADSVLWGGHKVFMVKPEEPFQPVKEATQL [C111N]	0.0648	0.0662	0.0738		0.0766	0.0629	0.0773		0.0734			0.0692		0.063			0.0846
MGESLFKGPRDYNPISSSICHLTNESDGHTTSLYGIGFGPFIITNKHLFRRNNGTLVVQSLHGVFKVKDTTTLQQHLVDGRQMIIIRMPKDFPPFPQKLKFREPQREERICLVTTNFQTKSMSSMVSDTSCTFPSGDGIFWKHWIQTKDGQCGSPLVSTRDGFIVGIHSASNFTNTNNYFTSVPKNFMELLTNQEAQQWVSGWRLNADSVLWGGHKVFMVKPEEPFQPVKEATQL [D82Q]	0.0525	0.0679			0.0673		0.071					0.0469	0.0514	0.0506			
MGESLFKGPRDYNPISSSICHLTNESDGHTTSLYGIGFGPFIITNKHLFRRNNGTLVVQSLHGVFKVKDTTTLQQHLVDGRDMIIIRMPKDFPPFPQKLKFREPQRESRICLVTTNFQTKSMSSMVSDTSCTFPSGDGIFWKHWIQTKDGQCGSPLVSTRDGFIVGIHSASNFTNTNNYFTSVPKNFMELLTNQEAQQWVSGWRLNADSVLWGGHKVFMVKPEEPFQPVKEATQL [E108S]	0.0561	0.0706	0.075		0.0563	0.053		0.0684	0.0567	0.0687		0.0596					
MGESLFKGPRDYNPISSSICHLTNESDGHTTSLYGIGFGPFIITNKHLFRRNNGTLVVQSLHGVFVVKDTTTLQQHLVDGRDMIIIRMPKDFPPFPQKLKFREPQREERICLVTTNFQTKSMSSMVSDTSCTFPSGDGIFWKHWIQTKDGQCGSPLVSTRDGFIVGIHSASNFTNTNNYFTSVPKNFMELLTNQEAQQWVSGWRLNADSVLWGGHKVFMVKPEEPFQPVKEATQL [K66V]	0.0882	0.0893	0.0732			0.0819		0.0655	0.0808			0.0544			0.0782		
MGESLFKGPRDYNPISSSICHLTNESDGHTTSLYGIGFGPFIITNKHLFRRNNGTLVVQSLHGVFKVKDTTTLQQHLVDGRDMIIKRMPKDFPPFPQKLKFREPQREERICLVTTNFQTKSMSSMVSDTSCTFPSGDGIFWKHWIQTKDGQCGSPLVSTRDGFIVGIHSASNFTNTNNYFTSVPKNFMELLTNQEAQQWVSGWRLNADSVLWGGHKVFMVKPEEPFQPVKEATQL [I86K]	0.0509	0.031	0.0363	0.0405		0.032		0.0452	0.0353	0.0392	0.0211	0.0383					

From the supplement of paper PMC12217912
